Measured values taken from US20230310557A1.

B1: ATB 467 (Fc fusion)
chain: EVQLVESGGGLVQPGGSLRLSCAASGYTFSSYWIEWVRQAPGKGLEWIGEILPGGGDTNYNEIFKGRATFSADTSKNTAYLQMNSLRAEDTAVYYCTRRVPIRLDYWGQGTLVTVSSGGGGSGGGGSGGGGSDIQLTQSPSSLSASVGDRVTITCKASQSVDYEGDSFLNWYQQKPGKAPKLLIYAASNLESGVPSRFSGSGSGTDFTLTISSLQPEDFATYYCQQSNEDPLTFGQGTKVEIKAS[human IgG1 Fc and a few adjoining residues not written out]RHRQPRGWEQLADTVICEPHQDTETGKIKKFKVDVGVAEDQAKKAGLTTGKSGDPHRYMNGDKINFGIHNCDKEGAILWEYPIYWVGKKAEWMKDEKTDRQPGGPTPIRVVYANNNGNIVYCGVMTHAVVKSNNQGEKFFLKCT
B2: ATB 323 (antibody)
heavy: EVQLVESGGGLVQPGGSLRLSCAASGYTFSSYWIEWVRQAPGKGLEWIGEILPGGGDTNYNEIFKGRATFSADTSKNTAYLQMNSLRAEDTAVYYCTRRVPIRLDYWGQGTLVTVSSGGGGSGGGGSGGGGSDIQLTQSPSSLSASVGDRVTITCKASQSVDYEGDSFLNWYQQKPGKAPKLLIYAASNLESGVPSRFSGSGSGTDFTLTISSLQPEDFATYYCQQSNEDPLTFGQGTKVEIKAS[human IgG1 Fc and a few adjoining residues not written out]GGSGGGGSRRKRAVTWTCLNDQKNPKTNKYETKRLLYNQNKAESNSHHAPLSDGKTGSSYPHWFTNGYDGDGKLPKGRTPIKFGKSDCDRPPKHSKDGNGKTDHYLLEFPTFPDGHDYKFDSKKPKENPGPARVIYTYPNKVFCGIIAHTKENQGELKLCSH
light: QIVLSQSPAILSASPGEKVTMTCRASSSVSYIHWFQQKPGSSPKPWIYATSNLASGVPVRFSGSGSGTSYSLTISRVEAEDAATYYCQQWTSNPPTFGGGTKLEIKRTVAAPSVFIFPPSDEQLKSGTASVVCLLNNFYPREAKVQWKVDNALQSGNSQESVTEQDSKDSTYSLSSTLTLSKADYEKHKVYACEVTHQGLSSPVTKSFNRGEC
B3: ATB 302 (Fc fusion)
chain: EVQLVESGGGLVQPGGSLRLSCAASGYTFSSYWIEWVRQAPGKGLEWIGEILPGGGDTNYNEIFKGRATFSADTSKNTAYLQMNSLRAEDTAVYYCTRRVPIRLDYWGQGTLVTVSSGGGGSGGGGSGGGGSDIQLTQSPSSLSASVGDRVTITCKASQSVDYEGDSFLNWYQQKPGKAPKLLIYAASNLESGVPSRFSGSGSGTDFTLTISSLQPEDFATYYCQQSNEDPLTFGQGTKVEIKAS[human IgG1 Fc and a few adjoining residues not written out]GGSAPIVTCRPKLDGREKPFKVDVATAQAQARKAGLTTGKSGDPHRYFAGDHIRWGVNNCDKADAILWEYPIYWVGKNAEWAKDVKTSQQKGGPTPIRVVYANSRGAVQYCGVMTHSKVDKNNQGKEFFEKCD
B4: ATB 509 (antibody)
heavy: EVQLVESGGGLVQPGGSLRLSCAASGYTFSSYWIEWVRQAPGKGLEWIGEILPGGGDTNYNEIFKGRATFSADTSKNTAYLQMNSLRAEDTAVYYCTRRVPIRLDYWGQGTLVTVSS[human IgG1 constant region not written out]
light: DIQLTQSPSSLSASVGDRVTITCKASQSVDYEGDSFLNWYQQKPGKAPKLLIYAASNLESGVPSRFSGSGSGTDFTLTISSLQPEDFATYYCQQSNEDPLTFGQGTKVEIKRTVAAPSVFIFPPSDEQLKSGTASVVCLLNNFYPREAKVQWKVDNALQSGNSQESVTEQDSKDSTYSLSSTLTLSKADYEKHKVYACEVTHQGLSSPVTKSFNRGECGGGGSADTVICEPHQDTETGKIKKFKVDVGVAEDQAKKAGLTTGKSGDPHRYMNGDKINFGIHNCDKEGAILWEYPIYWVGKKAEWMKDEKTDRQPGGPTPIRVVYANNNGNIVYCGVMTHAVVKSNNQGEKFFLKCT
B5: ATB 452 (antibody)
heavy: EVQLVESGGGLVQPGGSLRLSCAASGYTFSSYWIEWVRQAPGKGLEWIGEILPGGGDTNYNEIFKGRATFSADTSKNTAYLQMNSLRAEDTAVYYCTRRVPIRLDYWGQGTLVTVSS[human IgG1 constant region not written out]GGSADTVICEPHQDTETGKIKKFKVDVGVAEDQAKKAGLTTGKSGDPHRYMNGDKINFGIHNCDKEGAILWEYPIYWVGKKAEWMKDEKTDRQPGGPTPIRVVYANNNGNIVYCGVMTHAVVKSNNQGEKFFLKCT
light: DIQLTQSPSSLSASVGDRVTITCKASQSVDYEGDSFLNWYQQKPGKAPKLLIYAASNLESGVPSRFSGSGSGTDFTLTISSLQPEDFATYYCQQSNEDPLTFGQGTKVEIKRTVAAPSVFIFPPSDEQLKSGTASVVCLLNNFYPREAKVQWKVDNALQSGNSQESVTEQDSKDSTYSLSSTLTLSKADYEKHKVYACEVTHQGLSSPVTKSFNRGEC
B6: ATB 507 (antibody)
heavy: EVQLVESGGGLVQPGGSLRLSCAASGYTFSSYWIEWVRQAPGKGLEWIGEILPGGGDTNYNEIFKGRATFSADTSKNTAYLQMNSLRAEDTAVYYCTRRVPIRLDYWGQGTLVTVSS[human IgG1 constant region not written out]RRRKRSLDTSADTVICEPHQDTETGKIKKFKVDVGVAEDQAKKAGLTTGKSGDPHRYMNGDKINFGIHNCDKEGAILWEYPIYWVGKKAEWMKDEKTDRQPGGPTPIRVVYANNNGNIVYCGVMTHAVVKSNNQGEKFFLKCT
light: B5 light
B7: ATB 536 (antibody)
heavy: B5 heavy
light: B4 light
B8: ATB 222 (Fc fusion)
chain: EVQLVESGGGLVQPGGSLRLSCAASGYTFSSYWIEWVRQAPGKGLEWIGEILPGGGDTNYNEIFKGRATFSADTSKNTAYLQMNSLRAEDTAVYYCTRRVPIRLDYWGQGTLVTVSSGGGGSGGGGSGGGGSDIQLTQSPSSLSASVGDRVTITCKASQSVDYEGDSFLNWYQQKPGKAPKLLIYAASNLESGVPSRFSGSGSGTDFTLTISSLQPEDFATYYCQQSNEDPLTFGQGTKVEIKAS[human IgG1 Fc and a few adjoining residues not written out]RRRKRSLDTSAVTWTCLNDQKNPKTNKYETKRLLYNQNKAESNSHHAPLSDGKTGSSYPHWFTNGYDGDGKLPKGRTPIKFGKSDCDRPPKHSKDGNGKTDHYLLEFPTFPDGHDYKFDSKKPKENPGPARVIYTYPNKVFCGIIAHTKENQGELKLCSH
B9: ATB 466 (Fc fusion)
chain: EVQLVESGGGLVQPGGSLRLSCAASGYTFSSYWIEWVRQAPGKGLEWIGEILPGGGDTNYNEIFKGRATFSADTSKNTAYLQMNSLRAEDTAVYYCTRRVPIRLDYWGQGTLVTVSSGGGGSGGGGSGGGGSDIQLTQSPSSLSASVGDRVTITCKASQSVDYEGDSFLNWYQQKPGKAPKLLIYAASNLESGVPSRFSGSGSGTDFTLTISSLQPEDFATYYCQQSNEDPLTFGQGTKVEIKAS[human IgG1 Fc and a few adjoining residues not written out]RRRKRSLDTSADTVICEPHQDTETGKIKKFKVDVGVAEDQAKKAGLTTGKSGDPHRYMNGDKINFGIHNCDKEGAILWEYPIYWVGKKAEWMKDEKTDRQPGGPTPIRVVYANNNGNIVYCGVMTHAVVKSNNQGEKFFLKCT
B10: ATB 304 (Fc fusion)
chain: EVQLVESGGGLVQPGGSLRLSCAASGYTFSSYWIEWVRQAPGKGLEWIGEILPGGGDTNYNEIFKGRATFSADTSKNTAYLQMNSLRAEDTAVYYCTRRVPIRLDYWGQGTLVTVSSGGGGSGGGGSGGGGSDIQLTQSPSSLSASVGDRVTITCKASQSVDYEGDSFLNWYQQKPGKAPKLLIYAASNLESGVPSRFSGSGSGTDFTLTISSLQPEDFATYYCQQSNEDPLTFGQGTKVEIKAS[human IgG1 Fc and a few adjoining residues not written out]GGSAETVQYYNSYSDASIASCAFVDSGKDKIDKTKLVTYTSRLAASPAYQKVVGVGLKTAAGSIVPYVRLDMDNTGKGIHFNATKLSDSSAKLAAVLKTTVSMTEAQRTQLYMEYIKGIENRSAQFIWDWWRTGKAPA
B11: ATB 495 (Fc fusion)
chain: EVQLVESGGGLVQPGGSLRLSCAASGYTFSSYWIEWVRQAPGKGLEWIGEILPGGGDTNYNEIFKGRATFSADTSKNTAYLQMNSLRAEDTAVYYCTRRVPIRLDYWGQGTLVTVSSGGGGSGGGGSGGGGSDIQLTQSPSSLSASVGDRVTITCKASQSVDYEGDSFLNWYQQKPGKAPKLLIYAASNLESGVPSRFSGSGSGTDFTLTISSLQPEDFATYYCQQSNEDPLTFGQGTKVEIKAS[human IgG1 Fc and a few adjoining residues not written out]GGSADTVICEPHQDTETGKIKKFKVDVGVAEDQAKKAGLITGKSGDPHRYMNGDKINFGIHNCDKEGAILWEYPIYWVGKKAEWMKDEKTDRQPGGPTPIRVVYANNNGNIVYCGVMTHAVVKSNNQGEKFFLKCT
B12: ATB 497 (Fc fusion)
chain: EVQLVESGGGLVQPGGSLRLSCAASGYTFSSYWIEWVRQAPGKGLEWIGEILPGGGDTNYNEIFKGRATFSADTSKNTAYLQMNSLRAEDTAVYYCTRRVPIRLDYWGQGTLVTVSSGGGGSGGGGSGGGGSDIQLTQSPSSLSASVGDRVTITCKASQSVDYEGDSFLNWYQQKPGKAPKLLIYAASNLESGVPSRFSGSGSGTDFTLTISSLQPEDFATYYCQQSNEDPLTFGQGTKVEIKAS[human IgG1 Fc and a few adjoining residues not written out]GGSADTVICEPHQDTETGKIKKFTVDVGVAEDQAKKAGLTTGKSGDPHRYMNGDNINFGIHNCDKEGAILWEYPIYWVGKKAEWKKDEKTDRQPGGPTPLRVVYANNNGNIVYCGVMTHAVVKSNNQGEKFFLKCT
B13: ATB 496 (Fc fusion)
chain: EVQLVESGGGLVQPGGSLRLSCAASGYTFSSYWIEWVRQAPGKGLEWIGEILPGGGDTNYNEIFKGRATFSADTSKNTAYLQMNSLRAEDTAVYYCTRRVPIRLDYWGQGTLVTVSSGGGGSGGGGSGGGGSDIQLTQSPSSLSASVGDRVTITCKASQSVDYEGDSFLNWYQQKPGKAPKLLIYAASNLESGVPSRFSGSGSGTDFTLTISSLQPEDFATYYCQQSNEDPLTFGQGTKVEIKAS[human IgG1 Fc and a few adjoining residues not written out]GGSADTVICEPRQDTETGKIKKFKVDVGVAEDQAKKAGLITGKSGDPHRYMNGDKINFGIHNCDKEGAILWEYPIYWVGKKAEWMKDEKTDRQPGGPTPIRVVYANNNGNIVYCGVMTHAVVKSNNQGEKFFLKCT
B14: ATB 96 (Fc fusion)
chain: EVQLVESGGGLVQPGGSLRLSCAASGYTFSSYWIEWVRQAPGKGLEWIGEILPGGGDTNYNEIFKGRATFSADTSKNTAYLQMNSLRAEDTAVYYCTRRVPIRLDYWGQGTLVTVSSGGGGSGGGGSGGGGSDIQLTQSPSSLSASVGDRVTITCKASQSVDYEGDSFLNWYQQKPGKAPKLLIYAASNLESGVPSRFSGSGSGTDFTLTISSLQPEDFATYYCQQSNEDPLTFGQGTKVEIKAS[human IgG1 Fc not written out]

Molecular target: CD79b on target cells (JEKO, OCY-LY3, BJAB, WSU-DLCL2) (human) (UniProt P40259)
Sequence of UniProt P40259 (P40259 29-229): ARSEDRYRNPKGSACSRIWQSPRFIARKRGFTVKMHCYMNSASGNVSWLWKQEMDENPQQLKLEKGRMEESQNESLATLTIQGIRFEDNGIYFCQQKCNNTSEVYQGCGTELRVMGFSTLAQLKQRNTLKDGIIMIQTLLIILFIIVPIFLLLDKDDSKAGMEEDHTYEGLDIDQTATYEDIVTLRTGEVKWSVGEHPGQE
Experiment: cell-based or functional assay

Binder | cell viability IC50 (Cell Titer Glo, 72 h), JEKO cells [pM] | also measured
B1 | 86 | 
B2 | 160 | 
B3 | 1110 | 
B4 | 28.7 | 
B5 |  | cell viability IC50 (Cell Titer Glo, 72 h), BJAB cells (FIG. 15): 0.0333 pM; cell viability IC50 (Cell Titer Glo, 72 h), JEKO cells (FIG. 16): 15.1 pM; cell viability IC50 (Cell Titer Glo, 72 h), OCY-LY3 cells (FIG. 18): 58.7 pM; fold better efficacy than marketed antibody drug conjugate (Polatuzumab), viability assay on BJAB cells (FIG. 15): 3000 fold; fold better efficacy than marketed antibody drug conjugate, viability assay on JEKO cells (FIG. 16): 4.5 fold
B6 | 25.8 | 
B7 | 37.4 | 
B8 |  | cell viability IC50 (Cell Titer Glo, 72 h), BJAB cells: 0.058 pM
B9 | 0.533 | 
B10 | 281 | 
B11 | 326 | 
B12 | 138 | 
B13 | 532 | 
B14 |  | cell viability IC50 (Cell Titer Glo, 72 h), WSU-DLCL2 cells: 9040 pM
